In paper PMC4336329 (PLoS ONE, 2015):
The whole screen tested about 310,000 compounds, of which about 14,000 (4.5%) showed an effect of 50% or more. Effects have a minus sign here. The list shows a part of the results.

Target: human ether-à-go-go-related gene (hERG) potassium channel (human, UniProt Q12809)
Assay: primary screen, population patch clamp on CHO cells stably expressing hERG
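Further: peak tail current of the secondary pulse compared with the same well before compound.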

Sequence of human ether-à-go-go-related gene (hERG) potassium channel (Q12809 whole entry, looked up): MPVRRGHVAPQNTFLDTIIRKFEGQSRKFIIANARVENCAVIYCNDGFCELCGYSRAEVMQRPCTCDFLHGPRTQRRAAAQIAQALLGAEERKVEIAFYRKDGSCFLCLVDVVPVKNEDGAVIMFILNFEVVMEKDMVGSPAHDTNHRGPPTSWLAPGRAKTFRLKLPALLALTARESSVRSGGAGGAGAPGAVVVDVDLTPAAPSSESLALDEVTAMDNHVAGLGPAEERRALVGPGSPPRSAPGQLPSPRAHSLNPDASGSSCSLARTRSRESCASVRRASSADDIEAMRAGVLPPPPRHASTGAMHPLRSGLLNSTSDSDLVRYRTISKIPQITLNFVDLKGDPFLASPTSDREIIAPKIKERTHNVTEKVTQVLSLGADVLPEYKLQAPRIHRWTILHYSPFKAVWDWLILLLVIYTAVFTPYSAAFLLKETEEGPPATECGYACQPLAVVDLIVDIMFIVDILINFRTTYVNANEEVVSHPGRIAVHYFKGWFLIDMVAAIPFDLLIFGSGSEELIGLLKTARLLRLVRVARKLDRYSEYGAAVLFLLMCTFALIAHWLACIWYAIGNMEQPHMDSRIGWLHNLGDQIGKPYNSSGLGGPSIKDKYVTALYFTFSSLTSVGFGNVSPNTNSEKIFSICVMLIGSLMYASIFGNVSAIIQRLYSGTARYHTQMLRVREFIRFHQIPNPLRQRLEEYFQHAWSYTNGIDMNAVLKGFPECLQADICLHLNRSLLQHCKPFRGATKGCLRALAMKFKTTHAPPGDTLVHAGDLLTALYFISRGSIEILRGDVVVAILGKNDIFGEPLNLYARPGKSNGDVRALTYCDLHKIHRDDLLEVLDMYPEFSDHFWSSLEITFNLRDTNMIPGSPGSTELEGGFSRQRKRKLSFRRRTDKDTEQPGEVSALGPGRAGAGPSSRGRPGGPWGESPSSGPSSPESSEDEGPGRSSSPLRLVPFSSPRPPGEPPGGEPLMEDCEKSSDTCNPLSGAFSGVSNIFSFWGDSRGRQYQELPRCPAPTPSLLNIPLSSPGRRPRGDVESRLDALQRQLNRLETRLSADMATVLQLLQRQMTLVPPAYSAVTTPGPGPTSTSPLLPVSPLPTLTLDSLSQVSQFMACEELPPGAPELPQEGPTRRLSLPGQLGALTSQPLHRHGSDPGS

SMILES | hERG current change (%, negative = inhibition) at 10uM
CCOC(=O)c1sc2nc(C)[nH]c(=O)c2c1C | 13.2%
O=C(/C=C/c1ccccc1)Nc1sc2c(c1C(=O)O)CCC2 | 5.92%
CCCN1CCC[C@H](c2cccc(O)c2)C1.Cl | 0.216%
CCC(C)NC(=O)c1ccc(Cl)c(S(=O)(=O)Nc2ccccc2N2CCOCC2)c1 (centres unmarked) | -6.74%
OCCCNc1ncnc2oc(-c3ccccc3)c(-c3ccccc3)c12 | -13.2%
COc1ccccc1CN1CC(C(=O)NCCc2ccccc2Cl)CCC1=O (centres unmarked) | -9.19%
CCN1CCCC1CNC(=O)Cn1ncc2c(=O)oc3ccc(C)cc3c21 (centres unmarked) | -2.33%
COc1ccccc1/C=C1\SC(=O)N(CCC(=O)N(C)C2CCS(=O)(=O)C2)C1=O (centres unmarked) | -12.1%
COc1ccc(CN2CC(=O)N(c3ccc(C)c(C)c3)C2=S)cc1OC | 12.2%
CCO[C@@H]1OC(C(=O)Nc2ccccc2)=C[C@H](c2ccc3c(c2)OCO3)[C@H]1CCCO | -39.2%
Cc1noc2ncnc(SCc3ccc(C(F)(F)F)cc3)c12 | -4.54%
CN1CCc2c(n(CC(O)CN3CCN(CCO)CC3)c3ccccc23)C1=O.Cl (centres unmarked) | 2.24%
COc1ccc(NC(=O)NCc2cccn2C)c(OC)c1 | 7.83%
O=C(NC(=S)Nc1ccc(NC(=O)c2cccs2)cc1)c1cc2ccccc2o1 | 6.24%
CC1CN(C(=O)CSc2ncnc3sccc23)CC(C)O1 (centres unmarked) | 5.07%
COc1ccccc1CNCc1cc(OC)c(OC)cc1OC | -10.3%
CC(=O)N1CCOc2ccc(S(=O)(=O)NCCc3ccc(S(N)(=O)=O)cc3)cc21 | 12.2%
Cc1ccc(C2=NNC(c3cccc(F)c3)S2)cc1 (centres unmarked) | -5.04%
CCn1nc(C)c(CNC(=O)c2cc(COc3ccc(C)nc3)on2)c1C | 13.3%
Cc1nn(C)cc1CNC(=O)/C=C/c1cnn(C)c1 | 6.62%
CCn1cc(Cl)c(C(=O)NNC(=O)CCn2nc(C)c([N+](=O)[O-])c2C)n1 | -2.89%
O=C(Cc1ccc(-n2c(=O)[nH]c3ccsc3c2=O)cc1)NCc1cccnc1 | 18.9%

SMILES | hERG current change (%, negative = inhibition) at 10uM
CCOc1ccc(N2CC(C(=O)NC3CCSC3=O)CC2=O)cc1 (centres unmarked) | 25.6%
CCOc1ccc(/C=C/C(=O)c2ccc(-c3ccccc3)cc2)cc1 | 26.6%
Oc1c(Br)cc(Br)cc1/C=N/NC(=S)N[C@H]1CC2C=CC1C2 (some centres unmarked) | 18.9%
COc1ccc(NC(=O)CN2CCC(n3c(C)nc4cc(F)ccc43)CC2)c(OC)c1 | -4.64%
O=C(COc1ccc2ccccc2c1)NNC(=O)[C@@H]1CCCC[C@@H]1C(=O)O | 24%
CSc1cccc(CNC(=O)C2CCC(=O)N(CC3CCCCC3)C2)c1 (centres unmarked) | -2.28%
COc1ccc(CN(C(=O)CSc2nnc(-c3ccc(OC)c(OC)c3)o2)c2ccc(F)cc2)cc1 | -7.44%
CC(=O)N1c2ccc(S(=O)(=O)N3CCC(C(=O)Nc4cc(C)ccn4)CC3)cc2CC1C (centres unmarked) | 13.8%
Cc1cc2ccccc2n1CCNC(=O)COc1ccc2ccccc2c1 | 8.14%
Cc1nn2c(NCCOCCO)c3c(nc2c1-c1ccccc1)CCCC3 | -74.2%
CC(Oc1ccccc1)C(=O)Nc1ccc(S(=O)(=O)NCC2CCCO2)cc1 (centres unmarked) | 1.75%
CCn1c(=O)cc(SCC(=O)N2CCC(C)CC2)c2ccccc21 | -11.7%
O=C(NC1CCCCC1)C(=S)NCc1ccccc1 | -3.3%
Cc1c(N2C(=O)CSC2=S)c(=O)n(-c2ccccc2)n1C | 13.6%
CC(C)CNC(=O)C1Nc2ccccc2C2C=CCC12 (centres unmarked) | -6.43%
CC1CCCN(S(=O)(=O)c2ccc(NC(=O)Cn3nnc(-c4ccccc4F)n3)cc2)C1 (centres unmarked) | 1.45%
CN(C)C(=O)c1ccc(NC(=O)c2cc(-n3cnnc3)ccc2Cl)cc1 | 7.38%
CCC(C)NC(=O)CCC(=O)OC1O[C@H]2OC3(C)CC[C@H]4[C@H](C)CCC(C1C)C24OO3 (some centres unmarked) | -16.3%
Clc1ccccc1Sc1ccc(-c2ccccn2)s1 | 0.592%
O=C(Nc1ccc(Cl)cn1)Nc1ccc(Cl)cn1 | 12.5%
CCN(Cc1ccccc1)C(=O)c1ccc(N(C)S(=O)(=O)c2ccc(C)cc2)cc1 | -38.7%
O=C(N/N=C\c1ccc(-c2cccc(Cl)c2)o1)C(=O)NC1CCCC1 | 5.84%

SMILES | hERG current change (%, negative = inhibition) at 10uM
COc1cc(C(=O)N/N=C/c2cn(Cc3cccc(F)c3)c3ccccc23)ccc1O | 12.5%
COc1ccc2cnn(-c3ccc(OC(F)(F)F)cc3)c(=O)c2c1OC | -6%
CCOCCCN1CC(=O)N2[C@@H](Cc3c([nH]c4ccccc34)C2(C)C)C1=O | -12%
O=C(CCS(=O)(=O)c1ccccc1)Nc1nc(-c2ccccn2)cs1 | -1.47%
Cc1ccc(C(=O)N(CC(=O)NC2CCCC2)c2ccc(F)cc2)s1 | -0.0124%
CCSc1nnc2c3cc(CC)ccc3n(C)c2n1 | 24.2%
CC(C)[C@H](NC(=O)OCc1ccccc1)C(=O)OCC(=O)Nc1ccc(N2CCOCC2)cc1 | -15.1%
Cc1ccc(-n2[nH]c(C)c(C=Nc3ccc4[nH]c(=O)[nH]c4c3)c2=O)cc1 | 15.2%
COc1ccc(F)cc1C(=O)C1CCCN(C(=O)Cc2c(C)noc2C)C1 (centres unmarked) | -5.04%
O=C(O)COc1ccccc1/C=N/NC(=O)c1cc(-c2ccc(F)cc2)nc2ccccc12 | -0.318%
CC(C)[C@H](NC(=O)OCc1ccccc1)C(=O)OCC(=O)N1CCN(c2ccccc2)CC1 | -58.3%
Cc1ccc(/C=C/C(=O)OCC(=O)NCCN2C(=O)CSC2=O)cc1 | -17.9%
Cc1ccccc1-c1noc(N)c1C#N | 0.198%
CCN(CCNc1ccc([N+](=O)[O-])c2cccnc12)S(=O)(=O)c1ccccc1 | 11.3%
CN1C(=O)CS/C1=N\NC(=O)COc1cccc2cccnc12 | 14.6%
COc1ccc(OC)c(CCNC(=O)c2ccc(NC3=NC4CS(=O)(=O)CC4S3)cc2)c1 (centres unmarked) | 4.78%
COC(=O)c1c(NC(=O)Cc2cccs2)sc(C(=O)N2CCCCC2)c1C | 7.1%
COc1ccccc1N(CC(=O)NCCSCc1ccccc1)S(=O)(=O)c1ccc(C)cc1 | -38.2%
O=C(Cc1cccc2ccccc12)Nc1cc(C(=O)O)cc(C(=O)O)c1 | 23.8%
CCCCn1c(N)c(N(CC(C)C)C(=O)c2ccc(S(=O)(=O)N(CC)c3ccccc3)cc2)c(=O)[nH]c1=O | 16.3%
Cc1cc(OCC(=O)Nc2cccnc2)c2c(C)c(C)c(=O)oc2c1 | 19.8%
CCCCn1c(N)c(N(CC(C)C)C(=O)C2=NN(c3cc(C)ccc3C)C(=O)CC2)c(=O)[nH]c1=O | 17.4%

SMILES | hERG current change (%, negative = inhibition) at 10uM
COc1cccc(-c2nnc(NC(=O)CCS(=O)(=O)c3ccc(C)cc3)o2)c1 | 11.3%
CC(=O)Cc1nsc(NC(=O)c2ccc(-c3cccc(C(F)(F)F)c3)o2)n1 | -0.688%
CCc1cc[n+](-c2nc([O-])sc2C=O)cc1 | -5.1%
Cc1ccc(-n2nc(-c3ccc(N)cc3)cc2N)cc1 | -47.8%
COc1ccc2c(CC(=O)O)cc(=O)oc2c1 | 9.43%
Cc1noc(/C=C/N(C)C)c1S(=O)(=O)N1CCCC(C(=O)Nc2ccc(F)cc2F)C1 (centres unmarked) | 5%
O=C(CCCNS(=O)(=O)c1cccs1)N1CCN(c2cccc(Cl)c2)CC1 | -56.9%
N#Cc1c(NC(=O)c2ccc(Cn3cc(Br)cn3)o2)sc2c1CCCCC2 | 7.39%
Cc1cc2ccccc2n2c(SCC(=O)N3CCOCC3)nnc12 | 0.857%
CC(C)CNC(=O)c1cnn2c(C(F)(F)F)cc(C(F)(F)F)nc12 | 16.1%
COc1ccc(OC)c(S(=O)(=O)N2CCc3ccccc3C2)c1 | -11%
COc1ccc(CNC(=O)c2ccccc2[N+](=O)[O-])cc1 | -5.73%
S=C(NCc1ccccc1)N/N=C/c1cccs1 | 19.6%
CCOC(=O)C(C(=O)Nc1cccc(C)n1)C1CCCCC1 (centres unmarked) | -28.8%
COc1ccccc1N1CCN(C(=O)COc2ccc(Cl)cc2)CC1 | -68.5%
O=c1ccc2c(-c3ccccc3S(=O)(=O)O)c3ccc(O)c(O)c3oc-2c1O | 16.5%
Oc1ccc(Br)cc1/C=N/n1c(-c2ccccc2)n[nH]c1=S | 12%
CCC(=O)Nc1nnc(CSCc2ccc(F)cc2)s1 | 1.49%
CS(=O)(=O)N(CC(=O)NCCSC1CCCCC1)c1ccccc1 | 5.01%
O=c1c2ccccc2nc(/C=C/c2c[nH]c3ccccc23)n1-c1ccc([N+](=O)[O-])cc1 | 16.2%
